# Data as given in a collection of fitness landscapes (doi:10.1126/science.1257360).
# The other results are listed elsewhere or left out.
# B1: PhoQ; a variant is named by its letters at X, in order, P23837 (parent)
# chain: MKKLLRLFFPLSLRVRFLLATAAVVLVLSLAYGMVALIGYSVSFDKTTFRLLRGESNLFYTLAKWENNKLHVELPENIDKQSPTMTLIYDENGQLLWAQRDVPWLMKMIQPDWLKSNGFHEIEADVNDTSLLLSGDHSIQQQLQEVREDDDDAEMTHSVAVNVYPATSRMPKLTIVVVDTIPVELKSSYMVWSWFIYVLSANLLLVIPLLWVAAWWSLRPIEALAKEVRELEEHNRELLNPATTRELTSLVRNLNRLLKSERERYDKYRTTLTDLTHSLKTPLXXLQXXLRSLRSEKMSVSDAEPVMLEQISRISQQIGYYLHRASMRGGTLLSRELHPVAPLLDNLTSALNKVYQRKGVNISLDISPEISFVGEQNDFVEVMGNVLDNACKYCLEFVEISARQTDEHLYIVVEDDGPGIPLSKREVIFDRGQRVDTLRPGQGVGLAVAREITEQYEGKIVAGESMLGGARMEVIFGRQHSAPKDE
# Variants of: B1
# Assay: enrichment ratio after two sorts for PhoP signalling (ratio (wild type AVST 3.29)); higher = more functional
# Conditions: with PhoP (E. coli)
row,Variant,enrichment ratio
1,CPLR,≤ 0.25
2,RDHY,≤ 0.25
3,LFKM,≤ 0.25
4,VKLT,≤ 0.25
5,VWML,≤ 0.25
6,QPDK,≤ 0.25
7,YYEC,≤ 0.25
8,ARVR,≤ 0.25
9,TWIS,≤ 0.25
10,HMAG,≤ 0.25
11,DANM,≤ 0.25
12,HWHG,≤ 0.25
13,VVAG,≤ 0.25
14,ERDM,≤ 0.25
15,FNVE,≤ 0.25
16,QHDR,≤ 0.25
17,MLMM,≤ 0.25
18,KGDY,≤ 0.25
19,VRMQ,≤ 0.25
20,PLEQ,≤ 0.25
21,ARYT,≤ 0.25
22,RPGL,≤ 0.25
23,ACIV,0.927
24,HFPY,≤ 0.25
25,LCWT,≤ 0.25

row,Variant,enrichment ratio
1,NIFW,≤ 0.25
2,VTTC,≤ 0.25
3,RYNN,≤ 0.25
4,DRTQ,≤ 0.25
5,IQQC,≤ 0.25
6,YKPV,≤ 0.25
7,KSEL,≤ 0.25
8,TDVK,≤ 0.25
9,KLDS,≤ 0.25
10,ENSC,≤ 0.25
11,GRHR,≤ 0.25
12,FSTS,≤ 0.25
13,ISMV,7.06
14,IFAR,≤ 0.25
15,FCNL,≤ 0.25
16,FDFF,≤ 0.25
17,WVYE,≤ 0.25
18,TYYW,≤ 0.25
19,PSHE,≤ 0.25
20,PCGM,≤ 0.25
21,GHQT,≤ 0.25
22,RVKP,≤ 0.25
23,NVLC,≤ 0.25
24,SNAH,9.84
25,RATM,≤ 0.25

row,Variant,enrichment ratio
1,DFTQ,0.858
2,TRHV,≤ 0.25
3,ICID,≤ 0.25
4,RMED,≤ 0.25
5,FTSQ,≤ 0.25
6,HLDD,≤ 0.25
7,WTWG,≤ 0.25
8,LPQC,≤ 0.25
9,WHAV,≤ 0.25
10,SADP,≤ 0.25
11,KGHR,≤ 0.25
12,AMPE,≤ 0.25
13,NKDP,≤ 0.25
14,LPSI,≤ 0.25
15,SEVM,18.7
16,YDEL,≤ 0.25
17,YRKL,≤ 0.25
18,AKRS,≤ 0.25
19,VDRM,≤ 0.25
20,KFRM,≤ 0.25
21,IDNC,≤ 0.25
22,KHDM,≤ 0.25
23,SCYA,≤ 0.25
24,NWYQ,≤ 0.25
25,KMLM,≤ 0.25

row,Variant,enrichment ratio
1,FYGR,≤ 0.25
2,EAFD,≤ 0.25
3,QTIR,≤ 0.25
4,ICIA,≤ 0.25
5,RMDE,≤ 0.25
6,KNFY,≤ 0.25
7,TSVA,3.47
8,NVLK,≤ 0.25
9,NFWE,≤ 0.25
10,HENK,≤ 0.25
11,AQTM,3.65
12,SHCI,6.63
13,SHCM,10.8
14,WQFE,≤ 0.25
15,KYVS,≤ 0.25
16,WCPK,≤ 0.25
17,WRPM,≤ 0.25
18,KYRL,≤ 0.25
19,VFTT,≤ 0.25
20,HQGQ,≤ 0.25
21,ISRM,≤ 0.25
22,YCCP,≤ 0.25
23,YGDG,≤ 0.25
24,YYFS,≤ 0.25
25,EDQS,≤ 0.25

row,Variant,enrichment ratio
1,TELE,11.2
2,WHTD,≤ 0.25
3,VHQL,≤ 0.25
4,WVMY,≤ 0.25
5,TMPF,≤ 0.25
6,NRSR,≤ 0.25
7,FTHH,≤ 0.25
8,MFSI,≤ 0.25
9,YHMP,≤ 0.25
10,ASYT,≤ 0.25
11,EYTE,≤ 0.25
12,IDGD,≤ 0.25
13,FTVW,≤ 0.25
14,KTFY,≤ 0.25
15,VCWV,≤ 0.25
16,PCEV,≤ 0.25
17,YNAP,≤ 0.25
18,DYPA,≤ 0.25
19,LVDD,≤ 0.25
20,PMLK,≤ 0.25
21,MVSV,≤ 0.25
22,NFIP,≤ 0.25
23,FCML,21.1
24,FRDI,≤ 0.25
25,CFVY,≤ 0.25

row,Variant,enrichment ratio
1,NDHP,≤ 0.25
2,QHYG,≤ 0.25
3,HNMN,≤ 0.25
4,IFWL,≤ 0.25
5,KQVV,≤ 0.25
6,AEST,18.4
7,ICVL,≤ 0.25
8,ASTC,5.39
9,RDVF,≤ 0.25
10,SGYD,≤ 0.25
11,IRCG,≤ 0.25
12,WLFD,≤ 0.25
13,ADIW,≤ 0.25
14,EMHI,≤ 0.25
15,MTPC,≤ 0.25
16,NLDW,≤ 0.25
17,ILYE,≤ 0.25
18,YAYC,≤ 0.25
19,VIGD,0.855
20,WPTL,≤ 0.25
21,TGEQ,≤ 0.25
22,VDSW,≤ 0.25
23,GHSR,≤ 0.25
24,ISTN,≤ 0.25
25,LSRV,≤ 0.25

row,Variant,enrichment ratio
1,LWEF,≤ 0.25
2,GFEK,≤ 0.25
3,VFFG,≤ 0.25
4,DTQV,≤ 0.25
5,QWYV,≤ 0.25
6,GMCW,≤ 0.25
7,GALN,6.66
8,VNYC,≤ 0.25
9,FRRN,≤ 0.25
10,AWLD,≤ 0.25
11,YEDN,≤ 0.25
12,TGAH,9.14
13,FNAV,≤ 0.25
14,VQLQ,≤ 0.25
15,NMVY,≤ 0.25
16,IDHL,≤ 0.25
17,AHLE,12.9
18,ADIF,≤ 0.25
19,GYVP,≤ 0.25
20,FRTK,≤ 0.25
21,MHPF,≤ 0.25
22,TQMH,9.69
23,SKGQ,≤ 0.25
24,GRFI,≤ 0.25
25,YLAR,≤ 0.25

row,Variant,enrichment ratio
1,FVRD,≤ 0.25
2,ANHT,≤ 0.25
3,NRDM,≤ 0.25
4,HLPY,≤ 0.25
5,GRKV,≤ 0.25
6,IYNP,≤ 0.25
7,PTFN,≤ 0.25
8,PEDD,≤ 0.25
9,DQNF,≤ 0.25
10,TVDL,≤ 0.25
11,WGYF,≤ 0.25
12,YWHI,≤ 0.25
13,NCRF,≤ 0.25
14,TCVE,≤ 0.25
15,TMFV,0.532
16,LTVN,≤ 0.25
17,ELTG,≤ 0.25
18,QYHS,≤ 0.25
19,FQQD,≤ 0.25
20,VDLE,≤ 0.25
